Assay [1] deals with RAW-Dual. Kind of assay: IRF Lucia reporter activity, fold change vs agonist alone; cytotoxicity flag (confluency mask): not cytotoxic; higher = enhanced IRF activity. An outline of the steps: (§1)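 Cytotoxic wells were those whose IncuCyte confluency was below 70% of agonist controls in both mask sets. The cells were RAW-Dual macrophages at 50,000 cells/well in DMEM on 384-well plates, dosed with 50 nL of library stock by pin tool, stimulated with a PRR agonist 1 h later, and kept at 37 °C, 5% CO2 for 20 hours. IRF and NF-κB reporter activity, as fold change over agonist-alone wells, came from supernatant read by QuantiLuc luminescence and QuantiBlue absorbance, respectively.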

Assay [2] relates to RAW-Dual. Kind of assay: IRF Lucia reporter activity, fold change vs agonist alone; higher = enhanced IRF activity. The note with it: library stock concentration (final ~1000-fold dilution): 10 mM, agonist: MPLA (TLR4) […]. An outline of the steps: as §1
The subject of assay [3] is RAW-Dual. Description: IRF Lucia reporter activity, fold change vs agonist alone; cytotoxicity flag (confluency mask): cytotoxic (confluency <70% of control); higher = enhanced IRF activity. An outline of the steps:
as §1

The mark [4] stands for this setting: agonist: 3'3'-cGAMP (STING) 10 ug/mL.
Setting [5] is: cytotoxicity flag (confluency mask): not cytotoxic.

Each structure is given as a SMILES string. ± gives the standard deviation of the averaged measurements. In all, about 2,900 compounds were measured (“IRF Lucia reporter activity, fold change vs agonist alone”: median about 0.9, highest 2% from about 2.8 on). The list shows a part of the results.

Experimental findings from the supplement of paper PMC10037445 are described below.

As to `O=C(O)CCNc1cc(N2CCc3ccccc3CC2)nc(-c2ccccn2)n1` (library stock concentration (final ~1000-fold dilution): 10 mM), the “IRF Lucia reporter activity” value with RAW-Dual [1] (setting [4]) came out at 0.949; with RAW-Dual [1] (agonist: LPS (TLR4) 0.1 ug/mL) it was 1.33.

On to `O=C(O)CCNc1cc(N2CCc3ccccc3CC2)nc(-c2ccccn2)n1`, for which, in the assay with RAW-Dual [2] (setting [5]), the “IRF Lucia reporter activity” value stood at 1.03.

On to `Cl.Cl.Fc1ccc(C(c2ccc(F)cc2)N2CCN(C/C=C/c3ccccc3)CC2)cc1`, for which the “IRF Lucia reporter activity” value in the assay with RAW-Dual [2] (setting [5]) was found to be 1.06.

For `Cl.Cl.Fc1ccc(C(c2ccc(F)cc2)N2CCN(C/C=C/c3ccccc3)CC2)cc1` (library stock concentration (final ~1000-fold dilution): 10 mM), the “IRF Lucia reporter activity” value was found to be 0.836 in the assay on RAW-Dual [1] (setting [4]) and 1.22 in the assay with RAW-Dual [1] (agonist: LPS (TLR4) 0.1 ug/mL).

As for `CC(C)c1cnn2c(NCc3ccccc3)cc(NCCCCCCN)nc12.Cl`, in the assay on RAW-Dual [2] (cytotoxicity flag (confluency mask): cytotoxic (confluency <70% of control)), the “IRF Lucia reporter activity” value worked out at 0.153.

As to `CC(C)c1cnn2c(NCc3ccccc3)cc(NCCCCCCN)nc12.Cl` (library stock concentration (final ~1000-fold dilution): 10 mM), the “IRF Lucia reporter activity” value in the assay on RAW-Dual [3] (setting [4]) was found to be 0.218; with RAW-Dual [3] (agonist: LPS (TLR4) 0.1 ug/mL), 0.0402.

Consider `CCNC(=O)c1cc2c(-c3cc(C(C)(C)O)ccc3Oc3c(C)cc(F)cc3C)cn(C)c(=O)c2[nH]1` (library stock concentration (final ~1000-fold dilution): 10 mM), for which the “IRF Lucia reporter activity” value with RAW-Dual [3] (setting [4]) turned out to be 0.444; in the assay with RAW-Dual [3] (agonist: LPS (TLR4) 0.1 ug/mL), 0.163.

As to `Cc1cc([N+](=O)[O-])ccc1NS(=O)(=O)c1cc(Cl)ccc1Cl`, in the assay with RAW-Dual [2] (setting [5]), the “IRF Lucia reporter activity” value was 1.17.

As for `Cc1cc([N+](=O)[O-])ccc1NS(=O)(=O)c1cc(Cl)ccc1Cl` (library stock concentration (final ~1000-fold dilution): 10 mM), the “IRF Lucia reporter activity” value was 0.804 in the assay with RAW-Dual [1] (setting [4]) and 1 in the assay on RAW-Dual [1] (agonist: LPS (TLR4) 0.1 ug/mL).

Consider `C=CC(=O)N1CCCC(n2nc(-c3ccc(Oc4ccccc4)cc3)c3c(N)ncnc32)C1` (stereo not drawn) (library stock concentration (final ~1000-fold dilution): 10 mM), for which the “IRF Lucia reporter activity” value came out at 0.137 with RAW-Dual [1] (setting [4]) and 0.366 in the assay on RAW-Dual [1] (agonist: LPS (TLR4) 0.1 ug/mL).

Regarding `C=CC(=O)N1CCCC(n2nc(-c3ccc(Oc4ccccc4)cc3)c3c(N)ncnc32)C1` (stereo not drawn), the “IRF Lucia reporter activity” value in the assay on RAW-Dual [2] (setting [5]) came out at 0.458.

In the case of `COc1ccc(COc2ccc(Cc3cnc(N)nc3N)cc2OC)cc1` (library stock concentration (final ~1000-fold dilution): 10 mM), the “IRF Lucia reporter activity” value in the assay with RAW-Dual [1] (setting [4]) worked out at 0.88; in the assay with RAW-Dual [1] (agonist: LPS (TLR4) 0.1 ug/mL), 0.982.

For the compound `CCN(CC)CCNC(=O)c1c(C)[nH]c(/C=C2\C(=O)Nc3ccc(F)cc32)c1C.O=C(O)CC(O)C(=O)O` (library stock concentration (final ~1000-fold dilution): 10 mM), the entries for the “IRF Lucia reporter activity” value with RAW-Dual [1] (setting [4]) and in the assay with RAW-Dual [1] (agonist: LPS (TLR4) 0.1 ug/mL) were 0.017 and 0.0168, respectively.

Take `CCN(CC)CCNC(=O)c1c(C)[nH]c(/C=C2\C(=O)Nc3ccc(F)cc32)c1C.O=C(O)CC(O)C(=O)O`: in the assay on RAW-Dual [2] (setting [5]), the “IRF Lucia reporter activity” value stood at 0.0244.

In the case of `Cc1ccc(C(=O)c2cc(O)c(O)c([N+](=O)[O-])c2)cc1`, the “IRF Lucia reporter activity” value in the assay with RAW-Dual [2] (setting [5]) is 0.858.

`Cc1ccc(C(=O)c2cc(O)c(O)c([N+](=O)[O-])c2)cc1` (library stock concentration (final ~1000-fold dilution): 10 mM): the entries for the “IRF Lucia reporter activity” value in the assay with RAW-Dual [1] (setting [4]) and in the assay on RAW-Dual [1] (agonist: LPS (TLR4) 0.1 ug/mL) were 0.873 and 0.99, respectively.

In the case of `CC1(C)OC2CC(=O)OCC23C1CC(=O)C1(C)C3CCC2(C)C(c3ccoc3)OC(=O)C3OC321` (stereo not drawn) (library stock concentration (final ~1000-fold dilution): 10 mM), the “IRF Lucia reporter activity” value in the assay on RAW-Dual [1] (setting [4]) stood at 1.11; with RAW-Dual [1] (agonist: LPS (TLR4) 0.1 ug/mL), 0.885.

`CC1(C)OC2CC(=O)OCC23C1CC(=O)C1(C)C3CCC2(C)C(c3ccoc3)OC(=O)C3OC321` (stereo not drawn): in the assay on RAW-Dual [2] (setting [5]), the “IRF Lucia reporter activity” value stood at 1.06.

Take `O=C([O-])c1ccccc1O.[Na+]`: the “IRF Lucia reporter activity” value with RAW-Dual [2] (setting [5]) amounted to 1.05 ± 0.019.

As to `O=C([O-])c1ccccc1O.[Na+]` (library stock concentration (final ~1000-fold dilution): 10 mM), the “IRF Lucia reporter activity” value was determined as 0.928 ± 0.1 in the assay on RAW-Dual [1] (setting [4]) and 1.03 ± 0.056 in the assay on RAW-Dual [1] (agonist: LPS (TLR4) 0.1 ug/mL).

Regarding `CC(NCc1ccc(OCc2cccc(F)c2)cc1)C(N)=O.CS(=O)(=O)O` (stereo not drawn), the “IRF Lucia reporter activity” value with RAW-Dual [2] (setting [5]) stood at 0.619.

Regarding `CC(NCc1ccc(OCc2cccc(F)c2)cc1)C(N)=O.CS(=O)(=O)O` (stereo not drawn) (library stock concentration (final ~1000-fold dilution): 10 mM), the “IRF Lucia reporter activity” value worked out at 0.779 with RAW-Dual [1] (setting [4]) and 0.957 in the assay on RAW-Dual [1] (agonist: LPS (TLR4) 0.1 ug/mL).

Turning to `C[N+]1(C)C2CC(OC(=O)C(O)(c3cccs3)c3cccs3)CC1C1OC12` (stereo not drawn) (library stock concentration (final ~1000-fold dilution): 10 mM), the results for the “IRF Lucia reporter activity” value in the assay with RAW-Dual [1] (setting [4]) and with RAW-Dual [1] (agonist: LPS (TLR4) 0.1 ug/mL) were 0.978 and 1.08, respectively.

In the case of `C[N+]1(C)C2CC(OC(=O)C(O)(c3cccs3)c3cccs3)CC1C1OC12` (stereo not drawn), the “IRF Lucia reporter activity” value with RAW-Dual [2] (setting [5]) was determined as 1.02.

`O=C(N/N=C/c1ccc(O)c(O)c1)c1cc2ccccc2cc1O` (library stock concentration (final ~1000-fold dilution): 10 mM): the “IRF Lucia reporter activity” value is 0.0222 with RAW-Dual [1] (setting [4]) and 0.668 in the assay on RAW-Dual [1] (agonist: LPS (TLR4) 0.1 ug/mL).

For `COC(C)Cn1c(=O)n(C)c2cnc3ccc(-c4cncc(C(C)(C)O)c4)cc3c21` (stereo not drawn) (library stock concentration (final ~1000-fold dilution): 10 mM), the “IRF Lucia reporter activity” value in the assay with RAW-Dual [1] (setting [4]) was found to be 0.277; in the assay on RAW-Dual [1] (agonist: LPS (TLR4) 0.1 ug/mL) it was 0.648.

Regarding `CC(C)=CCC[C@](C)(O[C@@H]1O[C@H](CO)[C@@H](O)C(O)[C@H]1O)[C@H]1CC[C@]2(C)[C@H]1[C@H](O)CC1[C@@]3(C)CC[C@H](O)C(C)(C)[C@@H]3[C@@H](O[C@@H]3O[C@H](CO)[C@@H](O)[C@H](O)[C@H]3O[C@@H]3O[C@@H](C)[C@H](O)[C@@H](O)[C@H]3O)C[C@]12C` (stereo partly drawn) (library stock concentration (final ~1000-fold dilution): 10 mM), the entries for the “IRF Lucia reporter activity” value in the assay on RAW-Dual [1] (setting [4]) and with RAW-Dual [1] (agonist: LPS (TLR4) 0.1 ug/mL) were 1.16 and 1.03, respectively.
